# Values joined by “and” are separate entries in the source; they are usually repeats but may differ in a detail not shown here. Identical values can stand only once. Counter-ions that a name gives are not always drawn. The whole screen tested about 5,800 compounds, of which about 620 (11%) showed activity.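 How the source made its calls: active = score above a cut-off or among the top three wells of a plate; in these data no inactive exceeds 0.85.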 Only a part is listed here, and it is no random draw.
# Test system: primary human hepatic stellate cells (donor 1)
# Assay: scaled lipid accumulation score (0 = DMSO-like, 1 = nortriptyline-like); higher = stronger HSC inactivation (lipid re-accumulation), active = hit call of the paper
# Settings: 48 h
# Protocol: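 Primary lipid accumulation screen in primary human hepatic stellate cell myofibroblasts (donor 1, passage 8) in 384-well plates. 100 nL of library compound was pin-transferred into 30 µL medium in duplicate, and cells were treated for 48 h. The 'Scaled' score combines distance from plate baseline, toxicity and reproducibility penalties, and is normalised to nortriptyline (positive) and DMSO (negative) controls on each plate. A hit is defined as scaled >0.85 or among the top 3 wells per plate.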
# [1] = library stock concentration: 1 mM
# [2] = library stock concentration: 10 mM
# [3] = library stock concentration: 3.33 mM
# [4] = library stock concentration: 4.8 mM
# [5] = library stock concentration: 2 mM
# [6] = library stock concentration: 400 uM
# [7] = library stock concentration: 80 uM
compound,measurement,setting,value
CCCCC[C@H](O)/C=C/[C@@H]1[C@@H](CCCCCCC(=O)O)[C@H](O)C[C@@H]1O [11.beta.-Prostaglandin F1.beta.],scaled lipid accumulation score,[1],inactive: ≤ 0
CS(=O)(=O)O.Cc1ccc(NC(=O)c2ccc(CN3CCN(C)CC3)cc2)cc1Nc1nccc(-c2cccnc2)n1 [Imatinib Mesylate (STI571)],scaled lipid accumulation score,[2],active: 1.1
CCCc1c(OCCCCc2nnn[nH]2)ccc(C(C)=O)c1O,scaled lipid accumulation score,[1],inactive: ≤ 0 and inactive: ≤ -0.021
same,scaled lipid accumulation score,[2],inactive: 0.011
CC1CCc2c(N3CCC(O)CC3)c(F)cc3c(=O)c(C(=O)O)cn1c23 (centres undefined) [Nadifloxacin],scaled lipid accumulation score,,inactive: ≤ 0
same,scaled lipid accumulation score,[3],inactive: 0.031
same,scaled lipid accumulation score,[2],inactive: 0.009
CCCCCCCCCCCCCCCC(=O)OC[C@H](COP(=O)([O-])OCC[N+](C)(C)C)OC(=O)CCCCCCCC(=O)/C=C/C(=O)O,scaled lipid accumulation score,[1],inactive: 0.026
CCCCCC(=O)/C=C/C=O [4-oxo-2-Nonenal],scaled lipid accumulation score,[1],inactive: ≤ 0
NCC=CC(=O)O (stereo in doubt) [cis-4-Aminocrotonic acid],scaled lipid accumulation score,[2],inactive: ≤ 0
CC[C@@H]1C(=O)N(C)c2cnc(Nc3ccc(C(=O)N[C@H]4CC[C@H](N5CCN(CC6CC6)CC5)CC4)cc3OC)nc2N1C(C)C [Volasertib (BI 6727)],scaled lipid accumulation score,[3],active: 0.97
same,scaled lipid accumulation score,[2],active: 0.916
Cc1cc(=O)n(-c2ccccc2)n1C [Antipyrine],scaled lipid accumulation score,,inactive: 0.017
same,scaled lipid accumulation score,[3],inactive: ≤ 0
same,scaled lipid accumulation score,[2],inactive: ≤ -0.001 and inactive: ≤ 0
same,scaled lipid accumulation score,library stock concentration: 10.6 mM,inactive: ≤ -0.001
Clc1ccc(COC(Cn2ccnc2)c2ccc(Cl)cc2Cl)c(Cl)c1 (centres undefined),scaled lipid accumulation score,[2],inactive: 0.375
Clc1ccc(COC(Cn2ccnc2)c2ccc(Cl)cc2Cl)c(Cl)c1 (centres undefined) [Miconazole nitrate],scaled lipid accumulation score,[2],inactive: ≤ 0
Clc1ccc(COC(Cn2ccnc2)c2ccc(Cl)cc2Cl)c(Cl)c1 (centres undefined) [Miconazole Nitrate],scaled lipid accumulation score,[3],inactive: 0.004
same,scaled lipid accumulation score,[2],inactive: 0.377
Clc1ccc(COC(Cn2ccnc2)c2ccc(Cl)cc2Cl)c(Cl)c1 (centres undefined) [Miconazole],scaled lipid accumulation score,,inactive: 0.144
same,scaled lipid accumulation score,[3],inactive: 0.046
same,scaled lipid accumulation score,[4],inactive: 0.049
same,scaled lipid accumulation score,[2],inactive: ≤ 0
CCCN(CCc1cccs1)[C@H]1CCc2c(O)cccc2C1 [Rotigotine],scaled lipid accumulation score,[3],inactive: ≤ 0
same,scaled lipid accumulation score,[2],inactive: 0.456
CC(=O)[C@H]1CC[C@H]2[C@@H]3CC=C4C[C@@H](OS(=O)(=O)O)CC[C@]4(C)[C@H]3CC[C@]12C [Pregnenolone sulfate sodium],scaled lipid accumulation score,[2],inactive: ≤ 0
CCCCCCCCCCCCCCCC(=O)OC[C@H](COP(=O)([O-])OCC[N+](C)(C)C)OC(=O)CCCC(=O)/C=C/C(=O)O,scaled lipid accumulation score,[1],inactive: 0.034
N#C/C(=C\c1ccc(O)c(O)c1)C(=O)c1ccc(O)c(O)c1 [Tyrphostin AG 538],scaled lipid accumulation score,[2],inactive: ≤ 0
NC12CC3CC(CC(C3)C1)C2 [Amantadine HCl],scaled lipid accumulation score,[3],inactive: ≤ 0
same,scaled lipid accumulation score,[2],inactive: 0.042
NC12CC3CC(CC(C3)C1)C2 [Symmetrel],scaled lipid accumulation score,[2],inactive: 0.158
NC12CC3CC(CC(C3)C1)C2 [Adamantamine fumarate],scaled lipid accumulation score,,inactive: 0.029
NC12CC3CC(CC(C3)C1)C2 [Amantadine hydrochloride],scaled lipid accumulation score,[2],inactive: 0.29 and inactive: 0.659
same,scaled lipid accumulation score,library stock concentration: 10.7 mM,inactive: 0.031
CCCCCCCCCCCCCCCC(=O)NCCO [Palmitoylethanolamide],scaled lipid accumulation score,[2],inactive: 0.03
CCCCCCCCCCCCCCCC(=O)NCCO,scaled lipid accumulation score,[2],inactive: ≤ 0
CCCCCCCCCCCCCCCC(=O)NCCO [Palmitylethanolamide],scaled lipid accumulation score,[1],inactive: ≤ -0.021
CCCCCCCCCCCCCCCC(=O)NCCO [Palmitoyl Ethanolamide],scaled lipid accumulation score,[1],inactive: ≤ 0
C[C@@H](Oc1cc(-n2cnc3ccc(CN4CCN(C)CC4)cc32)sc1C(N)=O)c1ccccc1C(F)(F)F,scaled lipid accumulation score,[5],active: 0.915
same,scaled lipid accumulation score,[2],active: 1.2
CN1CCN(C2=Nc3cc(Cl)ccc3Nc3ccccc32)CC1 [Clozapine],scaled lipid accumulation score,[3],inactive: 0.105
same,scaled lipid accumulation score,library stock concentration: 6.1 mM,inactive: 0.429 and inactive: 0.648
same,scaled lipid accumulation score,[2],inactive: 0.755 and inactive: 0.578
same,scaled lipid accumulation score,library stock concentration: 15.3 mM,inactive: 0.769
CO[C@@H](C(=O)N1Cc2[nH]nc(NC(=O)c3ccc(N4CCN(C)CC4)cc3)c2C1)c1ccccc1,scaled lipid accumulation score,[6],inactive: ≤ -0.005
same,scaled lipid accumulation score,[5],inactive: ≤ -0.005
same,scaled lipid accumulation score,[3],inactive: 0.533
same,scaled lipid accumulation score,[2],inactive: 0.779
Cc1c(Cc2ccc3ccccc3n2)c2cc(F)ccc2n1CC(=O)O,scaled lipid accumulation score,[3],inactive: ≤ 0
same,scaled lipid accumulation score,[2],inactive: ≤ 0
C=CC(=O)N1CCC(Oc2cc3c(Nc4ccc(Cl)c(Cl)c4F)ncnc3cc2OC)CC1 [Poziotinib],scaled lipid accumulation score,[7],inactive: 0.111
same,scaled lipid accumulation score,[6],inactive: 0.281
same,scaled lipid accumulation score,[5],inactive: 0.059
same,scaled lipid accumulation score,[2],inactive: 0.72
CCN(CCO)CCCOc1ccc2c(Nc3cc(CC(=O)Nc4cccc(F)c4)[nH]n3)ncnc2c1 [Barasertib (AZD1152-HQPA)],scaled lipid accumulation score,[3],inactive: ≤ 0
same,scaled lipid accumulation score,[2],inactive: ≤ 0
O=C(CCC/C=C\C[C@@H]1C(/C=C/[C@@H](O)COc2cccc(C(F)(F)F)c2)[C@H](O)C[C@@H]1O)NC(CO)CO (some centres undefined) [Fluprostenol serinol amide],scaled lipid accumulation score,[1],inactive: ≤ 0
NC(=O)CCCSc1nc(N)nc(-c2c(Cl)cc3c4c(cccc24)COC3)n1,scaled lipid accumulation score,[3],active: 0.86
same,scaled lipid accumulation score,[2],active: 0.886
Brc1ccc([C@H]2CN3CCSC3=N2)cc1 [S(-)-p-Bromotetramisole oxalate],scaled lipid accumulation score,[2],inactive: 0.32
C=CC[C@H](N)C(=O)O [L-allylglycine],scaled lipid accumulation score,[2],inactive: 0.041
C[C@@H]1NC(=O)NC1=O [Methylhydantoin-5-(L)],scaled lipid accumulation score,,inactive: ≤ 0
O=C(O)c1ccccc1Nc1ccccc1 [N-Phenylanthranilic acid],scaled lipid accumulation score,[2],inactive: 0.204
same,scaled lipid accumulation score,library stock concentration: 23.5 mM,inactive: 0.084
CN1CCCC(n2nc(Cc3ccc(Cl)cc3)c3ccccc3c2=O)CC1.Cl (centres undefined) [Azelastine hydrochloride],scaled lipid accumulation score,[4],active: 0.978
same,scaled lipid accumulation score,[2],active: 0.992
Cc1cc(C(=O)Nc2cc(Nc3ccc4c(/C=C/c5ccccn5)n[nH]c4c3)ccc2F)n(C)n1,scaled lipid accumulation score,[6],inactive: 0.035
same,scaled lipid accumulation score,[5],inactive: 0.724
COc1ccccc1N1CCN(CCCCNC(=O)c2ccc3ccccc3c2)CC1,scaled lipid accumulation score,[2],active: 1.01
CCCCCCCCCCC1=C(C)C(=O)C(OC)=C(OC)C1=O [Decylubiquinone],scaled lipid accumulation score,library stock concentration: 15.5 mM,inactive: ≤ -0.021
c1ccc(-c2cnc(Nc3ccc(OCCN4CCCC4)cc3)s2)cc1 [Flt-3 Inhibitor III],scaled lipid accumulation score,[3],active: 1.17
O=C(O)c1cc(=O)c2ccccc2o1 [Chromocarb],scaled lipid accumulation score,[3],inactive: ≤ 0
same,scaled lipid accumulation score,[2],inactive: ≤ -0.001 and inactive: 0.052
NC(=S)c1ccc[n+]([C@@H]2O[C@@H](COP(=O)([O-])OP(=O)(O)OC[C@H]3O[C@@H](n4cnc5c(N)ncnc54)C(OP(=O)(O)O)[C@H]3O)C(O)C2O)c1 (some centres undefined) [Thio-NADP sodium],scaled lipid accumulation score,[2],inactive: ≤ 0
CCOc1cc([C@@H](CS(C)(=O)=O)N2C(=O)c3cccc(NC(C)=O)c3C2=O)ccc1OC,scaled lipid accumulation score,[3],inactive: ≤ -0.009
same,scaled lipid accumulation score,[2],inactive: ≤ 0
CCCCCCCCCCCCC/C=C/[C@@H](O)[C@H](CO)NC(C)=O [C2 Ceramide],scaled lipid accumulation score,[1],inactive: ≤ -0.021
CCCCCCCCCCCCC/C=C/[C@@H](O)[C@H](CO)NC(C)=O [C-2 Ceramide],scaled lipid accumulation score,[1],inactive: ≤ 0
CC1=C(C(=O)OC(C)C)C(c2cccc([N+](=O)[O-])c2)C(C(=O)OC2CN(C(c3ccccc3)c3ccccc3)C2)=C(N)N1 (centres undefined) [Azelnidipine],scaled lipid accumulation score,[3],inactive: 0.061
same,scaled lipid accumulation score,[2],inactive: 0.189
Cc1cc(C2CCCCC2)n(O)c(=O)c1 [Ciclopirox ethanolamine],scaled lipid accumulation score,,inactive: 0.37
same,scaled lipid accumulation score,[3],inactive: 0.244
same,scaled lipid accumulation score,[2],inactive: 0.269
Cc1cc(C2CCCCC2)n(O)c(=O)c1 [Ciclopirox],scaled lipid accumulation score,[3],inactive: 0.015
same,scaled lipid accumulation score,[2],inactive: 0.096
Cc1cc(C2CCCCC2)n(O)c(=O)c1 [Ciclopirox olamine],scaled lipid accumulation score,library stock concentration: 7.5 mM,inactive: 0.096
same,scaled lipid accumulation score,[2],inactive: 0.082
"CCS(=O)(=O)N(C)[C@H]1c2cc(C#N)ccc2OC(C)(C)[C@@H]1O [(-)-[3R,4S]-Chromanol 293B]",scaled lipid accumulation score,[2],inactive: 0.037
COc1cc(C(=O)NS(=O)(=O)c2ccccc2C)ccc1Cc1cn(C)c2ccc(NC(=O)OC3CCCC3)cc12 [Zafirlukast],scaled lipid accumulation score,[1],inactive: ≤ 0
same,scaled lipid accumulation score,[3],inactive: ≤ 0
same,scaled lipid accumulation score,library stock concentration: 3.5 mM,inactive: ≤ -0.006
same,scaled lipid accumulation score,[2],inactive: ≤ 0
COc1cc(C(=O)NS(=O)(=O)c2ccccc2C)ccc1Cc1cn(C)c2ccc(NC(=O)OC3CCCC3)cc12,scaled lipid accumulation score,[2],inactive: ≤ 0
CN[C@H]1CN(c2ccc3c(=O)c(C(=O)O)cn(-c4nccs4)c3n2)C[C@@H]1OC [Voreloxin (SNS-595)],scaled lipid accumulation score,[3],inactive: ≤ -0.009
same,scaled lipid accumulation score,[2],inactive: 0.037
CC(C)OC(=O)CCC/C=C\C[C@@H]1[C@@H](/C=C/[C@H](O)C2Cc3ccccc3C2)[C@@H](F)C[C@@H]1O [AL 8810 isopropyl ester],scaled lipid accumulation score,[1],inactive: ≤ 0
CN1CCC[C@@H]1CCO[C@](C)(c1ccccc1)c1ccc(Cl)cc1.O=C(O)/C=C/C(=O)O [Clemastine fumarate],scaled lipid accumulation score,[2],active: 0.861
CCc1cncnc1N1CCN(Cc2nc3ccc(C(F)(F)F)cc3[nH]2)CC1,scaled lipid accumulation score,[7],inactive: ≤ 0
same,scaled lipid accumulation score,[6],inactive: ≤ 0
same,scaled lipid accumulation score,[5],inactive: ≤ 0
same,scaled lipid accumulation score,[3],inactive: ≤ 0
same,scaled lipid accumulation score,[2],inactive: 0.077 and inactive: 0.419 and inactive: ≤ 0
CNCc1ccc(-c2[nH]c3cc(F)cc4c3c2CCNC4=O)cc1.O=P(O)(O)O [Rucaparib],scaled lipid accumulation score,[2],active: 1.12

# Reference: the supplement of paper PMC9135407
